Laboratory results taken from PubChem BioAssay AID1963576 (National Center for Advancing Translational Sciences (NCATS), 2024).
Screen size: about 46,000 compounds; about 60 (0.1%) were called active. Roughly 3% stayed inconclusive and do not appear here. The call rests on the fitted dose curve; in most records, active means well fitted inhibition curve with a large enough effect; inconclusive means small, poorly fitted or top-dose-only effect; inactive means no such curve, though single readings can be large or run the other way. The list shows a part of the results.

Test: Primary qHTS assay for Inhibitors of ovarian cancer metastasis using an organotypic tumor microenvironment (TME) model. Further: nearly all actives have a fitted effect of over 65% in size.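 On activity change, negative = inhibition: plate controls were DMSO wells for no effect and tomatine positive control wells for full effect.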
Conditions: SKOV3ip1-GFP adhesion/invasion on 3D omental model, fluorescence; series mostly up to 45.8 µM; activity change, negative = inhibition: at the top concentration
Outline: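 qHTS, 4-pt dose (0.36-46 umol/L); SKOV3ip1-GFP, 1,200 cells/well, no FBS; primary omental fibroblast/mesothelial co-culture 48 h pre-grown; 2 h RT + 16 h 37 C; PBS wash, 4% PFA; GFP count 488/509 nm.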

Activity change, negative = inhibition, inactive:
Cn1cnc(S(=O)(=O)N2CCC(C(=O)Nc3ccc(Cl)c(C(F)(F)F)c3)CC2)c1 -4.06%
CCc1nnc2c(Nc3ccccc3Br)nc3ccccc3n12 -1.19%
Cc1nn(CCC(=O)Nc2ccccc2Br)c(=O)c2nn(-c3ccccc3)c(C)c12 10.9%
Cc1cccc(CCNC(=O)CCS(=O)(=O)c2cc3c(cc2C)NC(=O)CO3)c1 -28.7%
CCCn1cc(S(=O)(=O)c2cccc(Cl)c2)c(=O)c2cc(F)c(N3CCCC3)cc21 -15%
Cc1cc(Cl)ccc1OCC(=O)N(Cc1ccc(N(C)C)cc1)C1CCS(=O)(=O)C1 (stereo not drawn) 2.06%
Cc1cccc(C(C)C)c1NC(=O)c1ccc2c(c1)CCCN2S(C)(=O)=O -6.68%
CC(=O)N1CCCC1c1nc2ccccc2n1Cc1ccccc1F (stereo not drawn) -5.81%
CCCCCN(C)CCC(O)(P(=O)(O)O)P(=O)(O)O 3.59%
CCc1cc(=O)[nH]c(SCc2nc(-c3ccc(C(F)(F)F)cc3)no2)n1 2.1%
Cc1ccc(S(=O)(=O)N(CC(=O)NCCSc2ccc(Cl)cc2)c2cccc(Cl)c2)cc1 -3.45%
CC(C)OCCCNC(=O)CN1C(=O)c2ccccc2Sc2ncccc21 23%
Fc1ccc(N2CCN(c3ncnc4[nH]ncc34)CC2)cc1 3.46%
Cc1oc2ncnc(N3CCOCC3)c2c1C(=O)NCc1ccc(Cl)cc1 1.84%
N#C/C(=C\c1ccc(-c2cccc(Cl)c2)o1)C(=O)Nc1cccc(C(F)(F)F)c1 -1.18%
CCOc1ccc(CC(=O)N2CCc3cc(OC)c(OC)cc3C2COc2ccc3c(C)cc(=O)oc3c2)cc1 (stereo not drawn) 1.26%
Cc1cc(=O)oc2cc(OCC(=O)Nc3ccc(O)c(C(=O)O)c3)ccc12 -7.29%
CCCn1cnc2cc(NCc3ccc(OC)cc3OC)ccc21 0.266%
Cc1ccc(NC(=O)c2sc(-n3nc(C)c(Cc4ccc5c(c4)OCO5)c3C)nc2C)cc1Cl -29.6%
COc1ccc(CNC(=O)Cc2c(C)c3c(cc(C)c4c(C)c(C)oc43)oc2=O)cc1OC -9.97%
CCN(CC)S(=O)(=O)c1ccc2c(c1)N(CC(=O)NCCCN1CCN(c3cc(Cl)ccc3C)CC1)C(=O)CO2 -26.3%
Cc1cccc(Cn2c(SCc3ccc(C(=O)NC4CCCC4)cc3)nc3ccncc32)c1 -12.5%
CCCOc1ccc(NC(=O)C(=O)NCCCN2CCOCC2)cc1 -7.77%
CCCCCn1c(=O)[nH]c2cc(C(=O)NCc3ccccc3)ccc2c1=O 8.31%
Cc1ccc(CNC(=O)CS(=O)(=O)Cc2nc(-c3ccccc3C)oc2C)cc1 0.707%
CC(C)CNS(=O)(=O)c1ccc(N2CCCCS2(=O)=O)cc1 15%
Cc1ccc(CNC(=O)c2cc3c(s2)-c2c(C)cccc2OC3)cc1 0.451%
CCOC(=O)c1c(NC(C)=O)c2c3c(sc2n1Cc1nc(-c2ccccc2Cl)oc1C)CCCC3 -7.86%
COc1ccc(CC(=O)Nc2ccc3nc(N4CCCCC4)cc(C)c3c2)cc1 -18.6%
COc1ccc(Cn2c(=O)c3ccccc3n3c(-c4cccc(OC)c4OC)nnc23)cc1 12.6%
COc1ccc(CNCc2c(C(=O)O)n(Cc3ccc(F)cc3)c3cc(C)ccc23)cc1OC 5.97%
CCC(=O)N1CCc2cc(Br)cc(S(=O)(=O)CCC(=O)Nc3cccc(C)c3C)c21 -16.2%
CCOCCCNC(=O)c1ccc(-n2c(-c3ccccc3)cc3c2CCCCC3)cc1 -3.48%
COc1ccc2c(c1)c1c(c(=O)n(Cc3ccccc3)c(=O)n1CC(=O)NCc1ccccc1)n2C -7.81%
CC(C)OC(=O)C(C(=O)OC(C)C)=C1SC=CS1 0.932%
CCOC(=O)c1c(C)c(-c2ccccc2)n(CC(=O)NCCc2cccc(C)c2)c1C -4.87%
COCCn1c(C)cc(O)c(C(c2ccc(F)cc2)N2CCN(c3ccccc3)CC2)c1=O (stereo not drawn) 4.85%
O=C(CSc1nc(=O)[nH]c2c1CCCC2)NCc1ccc(F)cc1 -1.69%
Cc1cccc(C(=O)NC2=NC(c3ccc(Cl)cc3)CC(=O)N2)c1 (stereo not drawn) 0.203%
CCc1cc(=O)[nH]c(SCc2nc(-c3ccccc3)no2)n1 -7.7%
CCCOc1ccc(C(=O)Nc2ccc(NC(=O)c3ccccc3)c(C)c2)cc1 -6.66%
Cc1nnc2c(N3CCN(c4ccccc4F)CC3)nc3ccc(C(=O)c4ccccc4)cc3n12 -10.9%
CSc1ccc(CCNC(=O)c2cc3cc(S(=O)(=O)N4CCCCC4)ccc3n2C)cc1 -12.5%
Cc1ccccc1Nc1c(-c2ccccc2)nc2cccc(C)n12 10.4%
Cc1cc(F)ccc1NC(=O)CS(=O)(=O)c1cccc2nsnc12 -2.86%
CS(=O)(=O)Nc1ccccc1C(=O)OCc1cc(=O)n2nc(C3CCCCC3)sc2n1 29.5%
CCOC(=O)C1CCC(CN(Cc2ccc(OC)cc2)S(=O)(=O)c2ccc(F)c(C(=O)Nc3c(C)cccc3C)c2)CC1 (stereo not drawn) -1.94%
O=C(Nc1cccc(Cl)c1)C1CCCN(c2ncnc3c2nc2n3CCCCC2)C1 (stereo not drawn) -15.6%
COc1ccc2c(c1)sc1ncc(C(=O)NCc3cccc(C)c3)c(=O)n12 -2.76%
CC(C)c1ccc(NC(=O)Cn2nnc(C(=O)NCc3ccc(Cl)cc3)c2N)cc1 -13%
Cn1nc(C(=O)N2CCN(c3ccc(F)cc3)CC2)c2c1-c1ccccc1SC2 1.77%
CC1CCCN(S(=O)(=O)c2cc3c4c(c2)CC(=O)N4CCC3)C1 (stereo not drawn) 7.87%
COc1ccc(CCNC(=O)c2cn(C)c3ccc(S(=O)(=O)N(C)C)cc3c2=O)cc1OC 4.74%
CCS(=O)(=O)c1nc(S(=O)(=O)c2ccc(C)cc2)c(NC)s1 -1.69%
COc1cccc(CNCCCSc2nnnn2C)c1OC -9.1%
CC1CCCCN1C(=O)CCS(=O)(=O)c1cc2c(cc1Cl)NC(=O)CO2 (stereo not drawn) -1.6%
COc1ccc(NC(=O)CCc2nnc3n(Cc4ccc(C)cc4)c(=O)c4ccccc4n23)cc1 -7.51%
CCc1ccccc1NC(=O)Cn1ccn(Cc2ccccc2)c(=O)c1=O 1.06%
CC(=O)Nc1c(C)nn(-c2ccccc2)c1N1CCC(C(=O)Nc2ccccc2F)CC1 -5.68%
COc1ccc(NS(=O)(=O)c2ccc3[nH]c4c(c3c2)CCCCC4)cc1 4.62%
COc1ccc(NC(=O)c2ccco2)cc1NC(=O)c1c(OC)cccc1OC 7.95%
Cn1c2ccccc2c2cnn(CC(=O)NCCCN3CCN(c4ccccc4F)CC3)c(=O)c21 -8.75%
COc1ccc(CCNC(=O)c2ccc3c(c2)ncn3-c2ccc(C(C)C)cc2)cc1OC -1.34%
CC(=O)c1ccc(N2CCN(C(=O)Nc3ccc(C(C)C)cc3)CC2)cc1 -26.6%
O=C(Nc1ccccc1)N(Cc1cccc(Cl)c1)c1ccccn1 3%
COc1ccc(Cn2c(CO)cnc2SCc2ccccc2C)cc1 -3.37%
Cc1c(C)n(Cc2ccc(-c3ccccc3C(=O)O)cc2)c2ccc(C(=O)N[C@@H](C)c3ccc([N+](=O)[O-])cc3)cc12 2.59%
COc1ccc(CNC(=O)Cc2c(C)c3cc4c(C)coc4c(C)c3oc2=O)cc1OC 4.59%
CCOC(=O)c1c(S(=O)(=O)N2CCC(C(=O)Nc3ccc(F)cc3F)CC2)c(C)n(C)c1C -8.79%
COc1ccccc1NC(=O)C1=C(C)Nc2ncnn2C1c1cccn1C (stereo not drawn) -25.1%
CCOc1ccc(CN2C(=O)c3ccccc3C2C(=O)NCCc2ccc(OC)c(OC)c2)cc1 (stereo not drawn) 12.2%
Cc1ccc(C)c(NC(=O)C2CCN(c3cc(C)nc4c(-c5ccc(Cl)cc5)c(C)nn34)CC2)c1 4.31%
CCOc1ccc(CNS(=O)(=O)c2ccc3c(c2)CCCN3C(C)=O)cc1 -2.66%
CC1Cc2cc(S(=O)(=O)CCC(=O)NCc3ccccc3Cl)ccc2N1C(=O)C1CC1 (stereo not drawn) 3.8%
COc1ccccc1CC(=O)Nc1ccc2nc(Nc3cccc(Cl)c3)cc(C)c2c1 -18.4%

outcome, inactive:
Cc1ccc(NC(=O)CSc2nccn2C2CCCC2)cc1Cl
CCOC(=O)c1cc(-c2ccc(C)cc2)n(CC(=O)Nc2ccc(OC)cc2OC)c1C
CCC(C)NC(=O)c1cnn(-c2cccc(F)c2)c1-n1cccc1 (stereo not drawn)
Cc1ccc(OCC(=O)Nc2nonc2-c2ccc(Br)cc2)cc1
COc1ccc(N2CCN(C(c3ccc(F)cc3)c3sc4nc(-c5ccco5)nn4c3O)CC2)cc1 (stereo not drawn)
CCN1CCN(C(c2ccc(F)cc2)c2sc3nc(-c4ccco4)nn3c2O)CC1 (stereo not drawn)
CCCC(=O)Nc1ccc2nc(SCC(=O)N3CCOCC3)sc2c1
O=C(Nc1cccc2c1CCCC2)N1CCOc2ccc(Cl)cc21
Cc1cccc(-c2noc(CNC(=O)c3ccccc3Br)n2)c1
CC1CCN(S(=O)(=O)c2ccc3c(c2)oc(=O)n3CC(=O)O)CC1
Cc1cccc(NC(=O)C2CCN(c3cnccn3)CC2)c1
Cc1cc(C)cc(NC(=O)N2CCN(c3cc(-c4noc(C)n4)ccc3C)CC2)c1
CCc1nc(C)cn1S(=O)(=O)c1ccc(Cl)c(Cl)c1OC
N#Cc1ccccc1Cn1cnc2nc3c(cc2c1=O)CCCC3
COc1ccc(CC(=O)NCCS(=O)(=O)N2CCN(c3ccc(F)cc3)CC2)cc1OC
COc1ccccc1NC(=O)c1sc2nc3c(cc2c1N)CN(Cc1ccccc1)CC3
Cc1cccc(CC(=O)NCc2nc3cccnc3n2Cc2ccc(F)cc2)c1
COc1ccc(N2CC(NC(=O)C3CCCC3)CC2=O)cc1OC (stereo not drawn)
CCc1ccc(C(=O)c2cn(CC(=O)Nc3cc(F)ccc3F)c3nc(C)ccc3c2=O)cc1
CCN(C(=O)c1cn(CC(C)C)c(=O)c2cc(OC)c(OC)cc12)c1cc(OC)ccc1OC
COc1ccc(-n2cc(C(=O)Oc3cc(C)cc(C)c3)c3ccccc3c2=O)cc1
Cc1ccc(-n2c(SCC(=O)c3ccccc3)nc3c([nH]c4ccccc43)c2=O)cc1
CC(C)C(=O)Nc1ccc2nc(SCC(=O)N3CCc4ccccc43)sc2c1
